Source: publication PMC5216067, “Sequence-specific assignment of methyl groups from the neuronal SNARE complex using lanthanide-induced pseudocontact shifts” (Journal of Biomolecular Nmr, 2016)

Target: T1, rat synaptobrevin 2 SNARE motif (residues 29-93) (rat, UniProt P63045 partial chain)
T1 construct: synaptobrevin 2, rat, residues 29-93 (SNARE motif); 2H,13CH3-ILMV-labelled in some samples, unlabelled in others; also called Syb; synaptobrevin SNARE motif; source: E. coli BL21(DE3), purified (as previously described)
T1 sequence (P63045 29-93): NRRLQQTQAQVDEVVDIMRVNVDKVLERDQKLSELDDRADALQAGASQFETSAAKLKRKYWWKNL
Experiment: 1H-13C HMQC (methyl-TROSY) NMR with lanthanide-induced pseudocontact shifts on the reconstituted complex; SNARE motifs mixed in 1 M NaCl, room temperature overnight, unlabelled fragments in 80% excess; unassembled motifs removed by concentration-dilution with a 30 kDa cutoff; spectra at 25 °C, 20-30 µM SNARE complex in 20 mM Tris (pH 7.4), 200 mM NaCl, 5% D2O
Details: both partners purified

binding result: binds
B1: rat syntaxin-1A SNARE motif ([…]) (domain or fragment)
chain: not shown
notes: syntaxin-1A, rat, […] (SNARE motif); 2H,13CH3-ILMV-labelled in some samples, unlabelled in others; also called Syx; syntaxin-1 SNARE motif; source: E. coli BL21(DE3), purified (as previously described)
